# Source: PubChem BioAssay AID2451 (National Center for Advancing Translational Sciences (NCATS), 2010)
# In all, about 290,000 compounds went through this assay and about 2,100 (0.72%) were called active. The inconclusive results got no clear call from the source; some entries with a clear call stand among them for comparison. Calls come from the whole dose curve; as a rule, active = well fitted inhibition curve with a large enough effect; inconclusive = small, poorly fitted or top-dose-only effect, or effect the other way; inactive = flat fitted curve, though single readings scatter. Potencies of inconclusive entries are doubtful fits and often do not repeat.
# Target: Fructose-bisphosphate aldolase (Giardia intestinalis (strain ATCC 50803 / WB clone C6)) (UniProt A8B2U2)
# Test: qHTS Assay for Inhibitors of Fructose-1,6-bisphosphate Aldolase from Giardia Lamblia; note: nearly all actives have a fitted effect of over 55% in size
# Details: purified Giardia FBPA; activity, negative = inhibition: at 59.6 µM (top of the series) unless noted
# Procedure, shortened: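 40 nM FBPA preincubated 10 min at RT with compound (up to 57.5 uM final), then substrate plus GAPDH/TPI/NAD/arsenate coupling and diaphorase/resazurin added. Fluorescence read after 20 min at RT, 525/598 nm.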
# % is set by controls: 0 for no effect and ±100 for the full control effect; potency is the fitted concentration of half-maximal effect; tags give direction and shape of the fitted curve.
# UniProt A8B2U2, sequence (A8B2U2 whole entry, looked up): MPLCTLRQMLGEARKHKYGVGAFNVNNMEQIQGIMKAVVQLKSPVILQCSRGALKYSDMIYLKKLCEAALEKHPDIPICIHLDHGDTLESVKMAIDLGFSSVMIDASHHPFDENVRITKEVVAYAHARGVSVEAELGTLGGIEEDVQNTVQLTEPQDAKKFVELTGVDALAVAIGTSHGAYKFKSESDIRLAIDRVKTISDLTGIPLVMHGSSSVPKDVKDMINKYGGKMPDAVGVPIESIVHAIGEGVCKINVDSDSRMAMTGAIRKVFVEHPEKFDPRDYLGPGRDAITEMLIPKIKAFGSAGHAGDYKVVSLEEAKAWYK
SMILES,"activity, negative = inhibition",Potency
C=CCCC/C=C(/C)C(OCc1ccc(OC)cc1)C(CC/C=C(\C)C(N)=O)OC (stereo not drawn),inactive: -3.12% [at 12.9 µM],–
O=[N+]([O-])c1cccc(-c2n[nH]c(=S)n2Cc2ccccc2)c1,inactive: 11.5%,–
COCCCNC(=O)[C@H]1N2C(=O)c3ccccc3C2SC1(C)C (stereo partly drawn),–,"inconclusive: 14.1 µM [inhibitor, partial curve]"
COc1cccc(NC(=O)C(NCC(C)(C)CN(C)C)c2ccccc2)c1 (stereo not drawn),–,"inconclusive: 11.2 µM [inhibitor, partial curve]"
COCCCNCCOCCOc1ccc(C)cc1[N+](=O)[O-],–,"inconclusive: 19.9 µM [inhibitor, partial curve]"
CC1CCCC/C1=N\NC(=S)Nc1cccnc1 (stereo not drawn),–,active: 17.7 µM
O=c1oc2ccccc2c(O)c1Cc1cc(Cl)c2cccnc2c1O,–,active: 9.98 µM
COC(=O)c1ccc(CSc2nccn2C)cc1,–,"inconclusive: 15.8 µM [inhibitor, single point]"
CC(C)(c1ccccc1)c1ccc(OCCN2CCCC2)cc1,–,active: 22.4 µM
O=C(CSc1ccccn1)c1ccc(F)cc1,inactive: -6.94%,–
O=C(O)c1cc(O)c2c(c1)[C@H]([C@H]1c3cc(C(=O)O)cc(O)c3C(=O)c3c(O[C@@H]4OC(CO)C(O)C(O)C4O)cccc31)c1cccc(O[C@@H]3OC(CO)C(O)C(O)C3O)c1C2=O (stereo partly drawn),–,active: 17.7 µM
C=CCn1cc(C(=O)OC)c(=O)c2cc(S(=O)(=O)N3CCCCCC3)ccc21,inactive: 3.99%,–
CCN(CC)CCn1c(=N)n(CC(O)COc2ccccc2)c2ccccc21 (stereo not drawn),inactive: -3.03%,–
Cn1c(NCCCN2CCOCC2)nc2c1c(=O)n(Cc1ccc(Cl)cc1)c(=O)n2C,inactive: 0.78%,–
Cc1cc(O)ccc1Nc1nc2ccccc2nc1Nc1ccc(O)cc1C,–,"inconclusive: 12.6 µM [inhibitor, partial curve]"
Cc1nn(-c2cccc(Cl)c2)c2nc(-c3ccco3)cc(C(=O)O)c12,–,"inconclusive: 19.9 µM [activator, partial curve]"
Brc1ccc(OCCCCCN2CCOCC2)cc1,–,"inconclusive: 3.54 µM [inhibitor, full curve, poor fit]"
COc1cc(CNc2ccc3[nH]c(=O)[nH]c3c2)ccc1OCC(=O)NC(C)(C)C,–,"inconclusive: 5.61 µM [inhibitor, full curve]"
CC(=O)c1ccc(NC(=O)Nc2sc(NS(=O)(=O)c3ccccc3)nc2C)cc1,–,"inconclusive: 17.7 µM [inhibitor, single point]"
Fc1ccc(CN2CCN(c3ncccn3)CC2)c(F)c1,–,"inconclusive: 15.8 µM [inhibitor, partial curve]"
N#Cc1ccccc1COC(=O)c1cc(=O)c2ccccc2o1,inactive: 1.68%,–
CC(=O)Oc1ccc(Cl)c2cccnc12,inactive: -3.99%,–
CN1C(=O)C(=Cc2c(OCc3cnc(Cl)s3)ccc3ccccc23)C(=O)N(C)C1=O,–,"inconclusive: 19.9 µM [inhibitor, partial curve]"
COCCNCCCOc1ccc(Cl)cc1Br,–,"inconclusive: 17.7 µM [inhibitor, partial curve]"
COC(=O)c1ccc(NC(=O)C[n+]2ccccc2)cc1,inactive: -25.4%,–

SMILES,"activity, negative = inhibition",Potency
O=C1NC(=S)NC(=O)C12C(c1ccccc1)NC(=S)NC2c1ccccc1 (stereo not drawn),–,"inconclusive: 15.8 µM [inhibitor, single point]"
C=CC1=C2C=C(C3CC3)N(CCCN(CC)CC)C=C2C(=O)C(C)(OC(=O)c2ccco2)C1=O (stereo not drawn),–,"inconclusive: 1.12 µM [inhibitor, full curve, poor fit]"
OCCNC(=S)NC1CCCCC1,inactive: 3.14%,–
c1ccc2c3c(ccc2c1)OCC1CONC31 (stereo not drawn),inactive: 4.16%,–
C=CCNC(=S)/N=c1/ccccn1C,–,"inconclusive: 19.9 µM [inhibitor, partial curve]"
O=C(O)c1c[nH]c(=S)n1-c1ccc(F)cc1,–,"inconclusive: 22.3 µM [inhibitor, single point]"
CC1CCCN(C(=S)Nc2ccc(Nc3ccccc3)cc2)C1 (stereo not drawn),–,"inconclusive: 28.1 µM [inhibitor, single point]"
Cc1ccn2cc(-c3nonc3C)cc2c1,–,"inconclusive: 11.2 µM [inhibitor, partial curve]"
CC(=O)c1cccc(NC(=O)N2CCC(c3ccc(C)cc3)C2)c1 (stereo not drawn),–,"inconclusive: 19.9 µM [inhibitor, single point]"
N=c1c(C(=O)NCC2CCCO2)cc2c(=O)n3ccccc3nc2n1C1CCCC1 (stereo not drawn),inactive: 11.8%,–
Cc1ccnc(NS(=O)(=O)c2ccc(NC(=O)Cc3c(F)cccc3Cl)cc2)n1,–,"inconclusive: 28.2 µM [inhibitor, single point]"
CCOc1ccc(/C(O)=C2/C(=O)C(=O)N(c3cc(C)on3)C2c2ccc(C(=O)OC)cc2)cc1 (stereo not drawn),–,"inconclusive: 15.8 µM [activator, single point]"
Oc1ccccc1N1CCN(CC(O)COCc2ccccc2Cl)CC1 (stereo not drawn),–,"inconclusive: 17.7 µM [inhibitor, partial curve]"
COc1ccc(NC2=C(NCCO)C(=O)c3ccccc3C2=O)cc1,–,"inconclusive: 4.46 µM [inhibitor, partial curve]"
NC(=S)N=Nc1c(O)n(C2OC(=O)c3ccccc32)c2ccccc12 (stereo not drawn),–,"inconclusive: 28.1 µM [activator, single point]"
CCn1c(-c2ccco2)n[nH]c1=S,–,"inconclusive: 15.8 µM [inhibitor, partial curve]"
Cc1cccc(N=Nc2c(O)[nH]c3ccc(Br)cc23)c1,inactive: -3.9%,–
COc1ccc(CN2CCN(Cc3ccc(C)cc3)CC2)c(OC)c1,–,active: 14.1 µM
O=C(Nc1ccccc1C(=O)O)c1ccc2ccccc2n1,–,"inconclusive: 12.6 µM [inhibitor, partial curve]"
Cn1c(=O)c(=O)n(C)c2cc(N3CCOCC3)c(NS(=O)(=O)c3ccc([N+](=O)[O-])cc3)cc21,–,"inconclusive: 22.4 µM [inhibitor, partial curve]"
CCOC(=O)CN(C)C(=O)CCc1nnc(-c2ccc(-c3ccccc3)cc2)o1,inactive: 2.42%,–
C/C(=N\NC(=O)c1ccc(NS(=O)(=O)c2cccs2)cc1)c1ccccc1,inactive: 3.78%,–
C=CCn1c(NC(=O)c2ccccc2Cl)c(C#N)c2nc3ccccc3nc21,–,"inconclusive: 0.998 µM [inhibitor, full curve]"
CN1C2C=C3C(C#N)=C(N)C(C#N)(C#N)C(c4ccc(Br)cc4)C3C1CC2 (stereo not drawn),–,"inconclusive: 15.8 µM [inhibitor, single point]"
O=C1C2C3C=CC(C3)C2C(=O)N1c1ccc(Cc2ccncc2)cc1 (stereo not drawn),inactive: 3.93%,–

SMILES,"activity, negative = inhibition",Potency
c1ccc(-c2ccc(SCc3cccnc3)nn2)nc1,–,"inconclusive: 31.5 µM [inhibitor, single point]"
CC(SCc1cn2cc(Cl)ccc2n1)C(=O)O (stereo not drawn),–,"inconclusive: 15.8 µM [inhibitor, partial curve]"
COc1ccc(OCC(=O)OC(C)CN2CCCCC2)cc1 (stereo not drawn),–,"inconclusive: 31.6 µM [inhibitor, single point]"
O=S(=O)(O)c1cc(O)c2c(O)c(N=Nc3cc(Cl)ccc3O)c(S(=O)(=O)O)cc2c1,–,"inconclusive: 39.8 µM [inhibitor, single point]"
COc1ccc(C(C(=O)NCc2ccccc2)N(Cc2ccc3c(c2)OCO3)C(=O)c2cnccn2)cc1 (stereo not drawn),inactive: 0.766%,–
COC(=O)c1ccc(C2NC(C(=O)O)CS2)cc1 (stereo not drawn),–,"inconclusive: 22.3 µM [inhibitor, partial curve]"
C=CCN1C(=O)/C(=C\C(C)=C\c2ccccc2)SC1=S,inactive: -0.277%,–
O=C(Nc1ccccc1)C1=C[C@H](c2csc3ccccc23)C[C@H](OCCCCO)O1,inactive: -8.18%,–
Cc1cc(-c2ccc(N=Nc3ccc4c(S(=O)(=O)O)cc(S(=O)(=O)O)c(N)c4c3O)c(C)c2)ccc1N=Nc1ccc2c(S(=O)(=O)O)cc(S(=O)(=O)O)c(N)c2c1O,–,active: 22.3 µM
C(=C\c1ccccc1)/C=N/N1CCN(Cc2ccccc2)CC1,inactive: 0.647%,–
O=C(Nc1cccc(-c2nnc(-c3ccccc3)o2)c1)C1CCCO1 (stereo not drawn),–,"inconclusive: 4.46 µM [activator, full curve]"
COc1ccc(-c2cc(=NCC(=O)O)c3ccccc3o2)cc1,inactive: -4.57%,–
COc1ccc2c(c1OC)C(Cc1ccccc1)N1CCc3cc4c(cc3C1=C2)OCO4 (stereo not drawn),–,"inconclusive: 19.9 µM [inhibitor, partial curve]"
S=c1[nH]nc(-c2ccccn2)n1/N=C/c1c(Cl)cccc1Cl,–,active: 6.29 µM
CCCNC[C@H](O)COc1ccccc1C(=O)CCc1ccccc1,–,inactive
O=C(Cc1cccs1)NNC(=S)NC(=O)c1ccco1,–,"inconclusive: 17.7 µM [inhibitor, partial curve]"
Cc1ccc2c(c1)CC1(CN2C)C(=O)OC2(CCCCC2)OC1=O,–,"inconclusive: 17.7 µM [inhibitor, partial curve]"
Cc1cc(C)nc(NNC2=CC(=[N+]3CCCCC3)CC(C)(C)C2)n1,–,"inconclusive: 5 µM [inhibitor, full curve]"
CCOc1ccc(/C(O)=C2/C(=O)C(=O)N(CCCn3ccnc3)C2c2cccs2)cc1Cl (stereo not drawn),inactive: 9.61%,–
COc1ccc(OC)c(N2Cc3ccccc3C2)c1,–,"inconclusive: 17.7 µM [inhibitor, partial curve]"
Cc1nc2ccccc2c(=O)n1-c1ccc(Cl)cc1[N+](=O)[O-],–,"inconclusive: 17.7 µM [activator, single point]"
CCOC(=O)C1=C(C)N(CCCCCC(=O)O)C(=O)NC1c1ccc(Cl)cc1 (stereo not drawn),–,"inconclusive: 28.2 µM [activator, partial curve, poor fit]"
O=C(Nc1nc2ccccc2[nH]1)c1ccc(Br)o1,–,"inconclusive: 17.7 µM [inhibitor, partial curve]"
